Here are results for 48 compounds from PubChem BioAssay AID1159614 (National Center for Advancing Translational Sciences (NCATS), 2016).

Hit rate of the full screen: of about 45,000 compounds, about 65 (0.1%) were called active. Calls come from the whole dose curve; as a rule, active = well fitted activation curve with a large enough effect; inconclusive = small, poorly fitted or top-dose-only effect; inactive = no such curve, though single readings can be large or run the other way. This is one part of the list.

Sequence of UniProt P54803 (P54803 whole entry, looked up): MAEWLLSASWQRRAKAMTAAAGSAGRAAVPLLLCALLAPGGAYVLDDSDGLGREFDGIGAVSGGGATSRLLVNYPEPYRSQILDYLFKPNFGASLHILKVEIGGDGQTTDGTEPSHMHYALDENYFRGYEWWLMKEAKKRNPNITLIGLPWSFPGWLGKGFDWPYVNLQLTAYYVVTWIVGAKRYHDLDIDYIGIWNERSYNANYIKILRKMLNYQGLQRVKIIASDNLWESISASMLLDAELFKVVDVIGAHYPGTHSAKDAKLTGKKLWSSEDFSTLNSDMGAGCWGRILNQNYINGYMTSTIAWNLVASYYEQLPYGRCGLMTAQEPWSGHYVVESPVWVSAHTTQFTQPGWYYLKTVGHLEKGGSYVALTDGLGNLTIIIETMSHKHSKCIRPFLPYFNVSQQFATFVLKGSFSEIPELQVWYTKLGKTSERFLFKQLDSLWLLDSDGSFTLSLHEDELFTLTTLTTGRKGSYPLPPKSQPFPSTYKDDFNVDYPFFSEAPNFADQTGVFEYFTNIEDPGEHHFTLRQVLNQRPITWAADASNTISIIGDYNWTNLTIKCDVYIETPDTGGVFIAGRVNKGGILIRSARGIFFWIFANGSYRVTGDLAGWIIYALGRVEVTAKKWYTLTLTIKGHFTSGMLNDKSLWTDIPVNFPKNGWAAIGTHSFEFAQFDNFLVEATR

The target of the experiment is Galactocerebrosidase (Homo sapiens) (UniProt P54803). Briefly: A Novel Cell-Based Assay to Identify Small Molecules for B -Galactocerebrosidase. Note: 0% is about no effect; nearly all actives have a fitted effect of over 65% in size. The conditions noted are these: 145M-Twi-hGALC-G270D cells (Twitcher mouse brain line with human GALC G270D), HMU-beta-Gal fluorescence, 48 h; series mostly up to 57.5 µM; activation: at the top concentration. An outline of the steps:
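Brain-derived Twitcher mouse 145M-Twi cells stably expressing human GALC-G270D or wild-type GALC, treated live, then residual GALC activity read by fluorescence of HMU-b-Gal substrate (0.1 mM final) in citrate-phosphate buffer pH 5.2 with sodium taurocholate. Signal increase indicates enhancement.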
On to `Cc1ccc(NC(=O)CNC(=O)Cn2c(C)cc3ccccc3c2=O)cc1F`, for which the “activation” value was inactive: -10.7%. As for `Cc1ccc(NC(=O)CSc2nc3ccc(NC(=O)c4cccs4)cc3s2)cc1`, the figure is inactive: -15.3%. As for `CCOc1cc(CNC(=O)c2ccc(Cn3c(=O)c4cccn4c4cccnc43)cc2)ccc1OC`, the “activation” value is inactive: -11.3%. As for `CCOC(=O)c1cnc2cc(C(F)(F)F)ccc2c1N1CCN(c2cccc(Cl)c2)CC1`, the figure is inactive: -19%; as for `CCOc1ccccc1C(=O)Nc1ccc(S(=O)(=O)Nc2onc(C)c2C)cc1`, inactive: -12.5%; as for `CCOc1cccc(C2c3[nH]c4ccccc4c3CCN2C(=O)c2ccccc2F)c1` (stereo not drawn), inactive: -8.83%. In the case of `CC(=O)c1ccc(NC(=O)Cn2cnc3nc4c(cc3c2=O)CC(C)CC4)cc1` (stereo not drawn) it was inactive: -7.47%; in that of `Cc1cccc(-c2nc3scc(CCNS(=O)(=O)c4c(C)noc4C)n3n2)c1`, inactive: -16.9%. In the case of `CCCCC(=O)Oc1ccc2oc(-c3ccc(OC)cc3)cc(=O)c2c1` it was inactive: -14.1%; in that of `CCc1cc(C(N)=S)ccn1`, inactive: -12.6%; in that of `CCC(Sc1nnc(C)n2c1cc1sccc12)C(=O)Nc1ccccc1F` (stereo not drawn), inactive: -11.6%. On to `CCOC(=O)c1c(SCC(=O)Nc2nc3ccccc3s2)nc(=O)[nH]c1C`, for which the “activation” value was inactive: -11.3%. As for `Cc1ccc(CNC(=O)CCC(=O)N2CC(C)Sc3ccccc32)cc1` (stereo not drawn), the figure is inactive: -12.9%; as for `CCCCn1c(CNC(=O)c2ccc(OC)cc2)nnc1SCC(=O)Nc1ccccc1`, inactive: -1.22%; as for `Cc1ccc(NC(=O)c2cc3c(=O)[nH]c4ccccc4c3n2C)cc1F`, inactive: -20.3%. In the case of `COc1ccc(-c2cc(C(C)=O)c(C)n2CCC(=O)NCc2ccc(F)cc2)cc1` it was inactive: -13.7%; in that of `CCOC(=O)c1cccc(NC(=O)CCCn2c(C)c3cnn(-c4ccccc4)c(=O)c3c2C)c1`, inactive: -6.31%; in that of `COc1cc(C2CC(=O)Nc3c2c(=O)n(C)c(=O)n3C)cc(OC)c1OC` (stereo not drawn), inactive: -9.69%. In the case of `Cc1cccc(-n2ncc(C(=O)N3CCC(C)CC3)c2C2CCN(C(=O)OC(C)(C)C)CC2)c1`, the “activation” value is inactive: -7.67%.

In the case of `CCOC(=O)c1c(S(=O)(=O)NCC(=O)N2CCN(c3ccccc3OC)CC2)c(C)n(C)c1C`, the “activation” value is inactive: -6.05%.

Consider `CC(=O)c1cccc(NS(=O)(=O)c2c(C)nc3sc(C)cn3c2=O)c1`, for which the “activation” value is inactive: -10.5%.

Regarding `CCN(CC)c1cc2c(cc1F)c(=O)c(S(=O)(=O)c1ccccc1)cn2Cc1ccccc1`, the “activation” value is inactive: -11.2%. As for `COc1ccc(CCNC(=O)NCc2noc3ccc(C)cc23)c(OC)c1`, the figure is inactive: -18.8%; as for `CC[C@]12CCCN3CCc4c(n(c5ccccc45)C(=O)C1)[C@@H]32`, inactive: -14.2%; as for `CC1CCc2nc3ncn(CC(=O)Nc4cccc(C#N)c4)c(=O)c3cc2C1` (stereo not drawn), inactive: -8.92%. In the case of `COc1cccc(NC(=O)c2cn(C3CCCCC3)c(=O)c3c2c2ccccc2n3C)c1` it was inactive: -18.1%; in that of `CCCCNC(=O)C(CC)Sc1nnc(-c2ccc(OC)c(OC)c2)c(-c2ccc(OC)c(OC)c2)n1` (stereo not drawn), inactive: -13.6%. In the case of `Cc1ccc(-c2ccc(=O)n(C(C)C(=O)Nc3ccccc3Cl)n2)cc1C` (stereo not drawn) it was inactive: -11.3%; in that of `CCn1cc(C(=O)O)c(=O)c2cc(F)c(N3CCN(C)CC3)cc21`, inactive: -10.9% [at 23.8 µM]; in that of `COc1ccccc1-c1nn(CCC(=O)Nc2cccc(C(C)=O)c2)c2nc(C)cc(C)c12`, inactive: -7.72%. With `COc1ccc(S(=O)(=O)N(CC(=O)N2CCC(C)CC2)c2ccc(C)cc2)cc1`, the “activation” value was inactive: -2.64%.

Take `CCOC(=O)c1sc2ncn(CC(=O)Nc3ccc(C)cc3C)c(=O)c2c1C`: the “activation” value was inactive: -9.53%. As for `Cc1cc(C)c(/C=C/c2onc(C)c2S(=O)(=O)N2CCC(C(=O)N3CCN(c4ccccc4)CC3)CC2)c(C)c1`, the figure is inactive: -14.5%; as for `COC(=O)c1ccc(Cn2c(SCc3cccc(C)c3)nc3ccncc32)cc1`, inactive: -14.2%; as for `COc1ccc(C(=O)NCC(c2cccs2)S(=O)(=O)c2ccc(C)cc2)cc1` (stereo not drawn), inactive: 2.65%. In the case of `CCc1ccccc1Nc1nn2c(=O)c3ccc(C(=O)Nc4cc(C)cc(C)c4)cc3nc2s1` it was inactive: -23.9%; in that of `Cc1cc(N2CCC(C)CC2)nc2ccc(NC(=O)CCC(=O)N3CCN(c4cccc(C(F)(F)F)c4)CC3)cc12`, inactive: -9.79%.

Consider `COc1cc(Cl)c(C)cc1NC(=O)CN1c2ccccc2S(=O)(=O)c2ccccc21`, for which the “activation” value was inactive: -4.19%.

Regarding `CCc1cccc(CC)c1NC1=NS(=O)(=O)c2ccccc21`, the “activation” value is inactive: -12.9%. In the case of `CC(C)OCCCN1C(=O)c2[nH]nc(-c3ccccc3O)c2C1c1ccc(OCc2ccccc2)cc1` (stereo not drawn) it was inactive: 0.136%.

On to `CCOc1ccccc1NC(=O)C(C)Sc1nc2c(c(=O)[nH]1)CCCC2` (stereo not drawn), for which the “activation” value is inactive: -11%. As for `Cc1ccc(CC(=O)Nc2c(C(=O)N3CCN(c4ccccc4F)CC3)oc3ccccc23)cc1`, the figure is inactive: -19.1%; as for `Cc1ccc(NS(=O)(=O)c2ccc3c(c2)NC(=O)CCS3)c(Br)c1`, inactive: -36.6%; as for `Cc1nn(C)c2c1c(C(F)(F)F)cc(=O)n2CC(=O)NCc1ccccc1Cl`, inactive: -7.75%. Take `Cc1cc(F)ccc1NC(=O)c1sc2nc(-c3cccs3)ccc2c1N`: the “activation” value was inactive: -18%. As for `Cc1ccc2c(=O)cc(C(=O)Nc3nnc(C)s3)oc2c1`, the figure is inactive: -17.4%; as for `CN1C(C(=O)Nc2ccc(F)cc2F)=CC(c2cccs2)=NS1(=O)=O`, inactive: -11.2%. As for `CCn1nc(-c2ccccc2)c(-c2ccccc2)c(C(=O)OCCOC)c1=O`, the figure is inactive: 2.5%.
